# In all, about 230,000 compounds went through this assay and about 3,600 (1.6%) were called active. This list was built around the results that the source calls inconclusive (neither active nor inactive); the mix of calls is not that of the screen. The call rests on the fitted dose curve; in most records, active means well fitted inhibition curve with a large enough effect (not every such curve was filed as active); inconclusive means small, poorly fitted or top-dose-only effect, or another doubt; inactive means no such curve, though single readings can be large or run the other way. A potency beside an inconclusive call is a rough fit, not a confirmed value.
# Target: Lysine-specific demethylase 4E (Homo sapiens) (UniProt B2RXH2)
# Sequence of UniProt B2RXH2 (B2RXH2 whole entry, looked up, the tested form may be a part): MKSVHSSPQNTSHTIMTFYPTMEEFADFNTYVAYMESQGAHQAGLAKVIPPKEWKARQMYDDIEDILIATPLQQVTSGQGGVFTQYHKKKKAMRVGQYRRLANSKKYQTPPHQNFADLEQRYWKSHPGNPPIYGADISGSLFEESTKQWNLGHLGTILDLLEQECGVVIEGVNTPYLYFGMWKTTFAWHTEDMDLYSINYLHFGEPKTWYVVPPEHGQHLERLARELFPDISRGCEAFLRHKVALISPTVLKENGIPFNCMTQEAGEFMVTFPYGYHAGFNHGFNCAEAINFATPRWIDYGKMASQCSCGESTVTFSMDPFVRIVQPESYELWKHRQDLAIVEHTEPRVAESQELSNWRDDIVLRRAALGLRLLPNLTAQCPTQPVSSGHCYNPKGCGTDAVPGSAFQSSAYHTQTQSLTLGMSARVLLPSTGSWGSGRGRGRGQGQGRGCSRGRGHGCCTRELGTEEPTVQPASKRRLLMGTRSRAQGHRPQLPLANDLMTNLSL
# Test: qHTS Assay for Inhibitors of Human Jumonji Domain Containing 2E (JMJD2E)
# Settings: JMJD2E catalytic domain, FDH-coupled NADH fluorescence (FDH is formaldehyde dehydrogenase); series mostly up to 57.1 µM
# Further: nearly all actives have a fitted effect of over 50% in size.
# Potency means the concentration at half of the fitted maximal effect; tags describe the fitted curve by direction and shape.
row,SMILES,Potency
1,COc1ccc(CCNC(=O)c2cnc3ccccn3c2=O)cc1,"inconclusive: 39.8 µM [inhibitor, single point]"
2,CC1(C)NC(=O)N(CCCCOc2ccc(Cl)cc2C=O)C1=O,"inconclusive: 28.2 µM [inhibitor, partial curve]"
3,Cc1ccc2[nH]c(=O)c(CN(CCc3ccccc3)C(c3nnnn3Cc3ccco3)C(C)C)cc2c1 (centres undefined),"inconclusive: 22.4 µM [inhibitor, partial curve]"
4,Nc1nc2ccc(C(=O)NCCOC(=O)C3CCCCC3)cc2s1,inactive
5,CCCSc1nc(SCC(=O)NCc2ccccc2)c2c3c(sc2n1)COC(C)(C)C3,inactive
6,CCCc1nc2ccccc2c(=O)n1/N=C/c1ccc(O)c(O)c1,active: 12.6 µM
7,COC(=O)c1ccc(-c2ccc(C(c3c(C)[nH][nH]c3=O)c3c(C)[nH][nH]c3=O)o2)cc1,"inconclusive: 0.631 µM [inhibitor, full curve, poor fit]"
8,Cc1ccc(C(=O)NNC(=O)c2ccc(C)cc2)cc1,inactive
9,Cc1ccc(S(=O)(=O)Nc2ccc(NC(=O)c3cccs3)cc2)cc1,inactive
10,O=C(Cc1ccccc1)c1ccc2c(c1)OCCO2,"inconclusive: 39.8 µM [inhibitor, single point]"
11,COc1cccc(OC)c1C(=O)NC(=S)NNC(=O)[C@H]1C[C@@H]1c1ccccc1,"inconclusive: 39.8 µM [inhibitor, single point]"
12,Cc1ccc(Sc2cc(C)nc(-c3ccccn3)n2)cc1,"inconclusive: 39.8 µM [inhibitor, single point]"
13,COc1ccccc1-c1nnc(SC(C(=O)c2c[nH]c3ccccc23)c2ccccc2)n1C (centres undefined),inactive
14,CCCCNC(=O)Nc1c(C(=O)OCC)[nH]c2ccccc12,"inconclusive: 5.01 µM [inhibitor, full curve]"
15,OCCN1CCN(c2ncnc3c2sc2nc(N4CCOCC4)c4c(c23)CCC4)CC1,"inconclusive: 28.2 µM [inhibitor, partial curve]"
16,O=S(=O)(Nc1nc2ccccc2nc1NCC1CCCO1)c1cc(Cl)ccc1Cl (centres undefined),"inconclusive: 28.2 µM [inhibitor, partial curve]"
17,OCC1(Cc2ccccc2C(F)(F)F)CCN(Cc2ccc3c(c2)CCO3)CC1,"inconclusive: 39.8 µM [inhibitor, single point]"
18,C=CCn1c(=NC(=O)c2cc(-c3cccs3)nc3ccccc23)sc2cc(S(N)(=O)=O)ccc21,"inconclusive: 28.2 µM [inhibitor, partial curve]"
19,Cn1c(SCC(=O)N2CCN(S(=O)(=O)c3ccccc3)CC2)nc2ccccc21,inactive
20,COc1ccc(N2CCN(c3cc(C)c4cccc(C)c4n3)CC2)cc1,"inconclusive: 35.5 µM [inhibitor, single point]"
21,COc1c(C)cccc1C(=O)Nc1ccc(N2CCN(S(C)(=O)=O)CC2)cc1,"inconclusive: 39.8 µM [inhibitor, single point]"
22,CCN(CC)CCNC1=NCCn2c1cc1cc(OC)ccc12,"inconclusive: 31.6 µM [inhibitor, partial curve]"

row,SMILES,Potency
1,NCc1c(O)ccc2ccccc12,"inconclusive: 25.1 µM [inhibitor, partial curve]"
2,Nc1ccc2c(c1)C(=O)C(=O)c1ccccc1-2,inactive
3,Cc1cc(C)c2ccc(=O)n(CC(=O)N/N=C/c3ccccc3Cl)c2n1,"inconclusive: 28.2 µM [inhibitor, single point]"
4,O=C(N/N=C/c1ccc(Br)s1)c1ccc([N+](=O)[O-])cc1,"inconclusive: 0.355 µM [inhibitor, partial curve, poor fit]"
5,CCOc1cc(S(=O)(=O)N2CCN(CC)CC2)ccc1Cl,inactive
6,CCCOC(=S)NC(=O)c1sc2ccccc2c1Cl,inactive
7,CC(NC(=O)CSc1nc2sc3c(c2c(=O)n1-c1ccccc1)CCCC3)c1ccccc1 (centres undefined),"inconclusive: 39.8 µM [inhibitor, single point]"
8,O=C(CCC(=O)Nc1ccc(Br)cc1)N/N=C/c1cc([N+](=O)[O-])ccc1O,"inconclusive: 35.5 µM [inhibitor, single point]"
9,Cn1c(C(=O)NCc2ccccc2)cc2oc3ccccc3c21,"inconclusive: 35.5 µM [inhibitor, single point]"
10,Oc1ccc[n+](CCCCC[n+]2cccc(O)c2)c1,"inconclusive: 31.6 µM [inhibitor, single point]"
11,CC(C)c1cc(-c2cc(C(=O)NCc3ccccc3)on2)nc(NCC2CC2)n1,"inconclusive: 31.6 µM [inhibitor, single point]"
12,N#Cc1c(=O)c2nc(NCCCO)ncc2n2c(=O)c3ccccc3[nH]c12,"inconclusive: 28.2 µM [inhibitor, single point]"
13,C/C=C\C=C\C(=O)N1CC2(CC(c3cccc(NC(=O)COc4ccc(Cl)cc4)c3)=NO2)C[C@H]1C(N)=O (some centres undefined),"inconclusive: 39.8 µM [inhibitor, single point]"
14,O=Cc1ccc(-c2ccccc2C(=O)O)o1,"inconclusive: 28.2 µM [inhibitor, partial curve]"
15,CNc1ccccc(C(=O)/C=C/c2ccccc2OC)c1=O,"inconclusive: 11.2 µM [inhibitor, partial curve]"
16,CC(C)CCN=Cc1c(O)n(-c2ccccc2)c(=O)c2ccccc12,"inconclusive: 39.8 µM [inhibitor, single point]"
17,O=C(Nc1nccs1)c1ccc(S(=O)(=O)N2CCOCC2)cc1,inactive
18,COc1cccc(NC(=O)Nc2cccn(Cc3ccccc3)c2=O)c1,"inconclusive: 28.2 µM [inhibitor, partial curve]"
19,O=C(Cc1ccccc1)N/N=C/c1cc(Br)cc(Cl)c1O,active: 6.31 µM
20,COc1ccc(-n2cc(-c3ccccc3)c3c(N4CC(C)OC(C)C4)ncnc32)cc1 (centres undefined),"inconclusive: 31.6 µM [inhibitor, partial curve]"
21,CC(=O)Nc1ccc(SCC(=O)c2cc(C)n(-c3ccccc3)c2C)cc1,inactive
22,CCCOc1ccc(C2C(=O)N(C3CCCCCC3)CC(=O)N2Cc2ccco2)cc1OC (centres undefined),inactive

# — PubChem BioAssay AID2147 (National Center for Advancing Translational Sciences (NCATS), 2009)
